According to PubChem BioAssay AID1963576 (National Center for Advancing Translational Sciences (NCATS), 2024):
The whole screen tested about 46,000 compounds, of which about 60 (0.1%) were called active. Not shown: some 3% with an inconclusive outcome. The call rests on the fitted dose curve; in most records, active means well fitted inhibition curve with a large enough effect; inconclusive means small, poorly fitted or top-dose-only effect; inactive means no such curve, though single readings can be large or run the other way. The list shows a part of the results.

Assay: Primary qHTS assay for Inhibitors of ovarian cancer metastasis using an organotypic tumor microenvironment (TME) model. Further: nearly all actives have a fitted effect of over 65% in size.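 On activity change, negative = inhibition: plate controls were DMSO wells for no effect and tomatine positive control wells for full effect.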
Details: SKOV3ip1-GFP adhesion/invasion on 3D omental model, fluorescence; series mostly up to 45.8 µM; activity change, negative = inhibition: at the top concentration
In short: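 Adhesion/invasion was scored as fixed GFP-labeled SKOV3ip1 cell counts (488/509 nm), normalized to DMSO and tomatine controls. Cancer cells in serum-free medium, with four compound doses (0.36-46 umol/L), sat 2 hr at RT then 16 hr at 37 C on a 48 hr fibroblast/mesothelial/ECM culture.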

| Compound | activity change, negative = inhibition | outcome |
| --- | --- | --- |
| COc1ccc(C(=O)NCC(c2cccs2)S(=O)(=O)c2cccs2)cc1 (stereo not given) | inactive: -8.78% |  |
| O=C(CN1C(=O)CC(c2ccco2)Sc2ccccc21)Nc1ccc(OC(F)(F)F)cc1 (stereo not given) |  | inactive |
| Cc1ccc(S(=O)(=O)Nc2nc3n(n2)C(c2ccc(Cl)cc2)C=C(c2ccccc2)N3)cc1 (stereo not given) | inactive: -9.29% |  |
| CCCn1c2ccc(C)cc2c2nnc(SCCN3CCCCC3)nc21 |  | inactive |
| COc1ccc(CCNC(=O)c2cc(-c3ccc(C)c(C)c3)nc3ccccc23)cc1OC | inactive: -8.48% |  |
| Cc1ccc(CNc2nc3nc(C)c(Cl)c(C)n3n2)cc1 |  | inactive |
| O=S(=O)(c1ccc(Br)cc1)N1CCn2cccc2C1c1ccc(Br)cc1 (stereo not given) | inactive: 4.51% |  |
| Cn1c(C(=O)Nc2cccc(Cl)c2)cc2c(=O)n(C)c3ccccc3c21 |  | inactive |
| COc1ccc(-c2nc(CS(=O)CC(=O)NCc3ccccc3Cl)c(C)o2)cc1OC (stereo not given) | inactive: -1.23% |  |
| CCOCCc1nn2c(=O)cc(COC(=O)c3ccc4c(c3)OCO4)nc2s1 | inactive: 2.65% |  |
| Cc1nn(C)c2c1c(C(F)(F)F)cc(=O)n2C(C)C(=O)NCc1ccccc1 (stereo not given) | inactive: 3.29% |  |
| Cc1ccc(C)c(N2CCN(CCCNC(=O)c3ccc4nc(C(C)C)oc4c3)CC2)c1 | inactive: 2.01% |  |
| CCc1ccccc1NC(=O)CSc1nc2ccccc2nc1Cc1cccc(OC)c1 |  | inactive |
| CC(C)c1nn2c(=O)cc(COC(=O)COc3ccccc3F)nc2s1 |  | inactive |
| O=C(NCc1ccccc1)c1ccc2c(c1)sc1nc(-c3ccc(F)cc3)cn12 | inactive: 10.1% |  |
| Cc1oc2c(c(C)cc3oc(=O)c(CC(=O)NCCc4ccc(Cl)cc4)c(C)c32)c1C | inactive: -7.7% |  |
| Cc1cccc(NC(c2nnc(-c3ccccc3)o2)c2ccc(F)cc2Cl)c1C (stereo not given) | inactive: -13.7% |  |
| Cc1ccc(Cl)cc1N1CCN(C(=O)C2CCN(S(=O)(=O)c3c(C)noc3/C=C/c3ccccc3F)CC2)CC1 | inactive: -3.3% |  |
| Cc1ccc(-c2cn3c(n2)sc2cc(C(=O)NC4CCCCCC4)ccc23)c(C)c1 | inactive: -0.902% |  |
| CC1(C)O[C@H]2[C@@H](O1)[C@@H](C(=O)Nc1cc(F)ccc1F)O[C@@H]1OC(C)(C)O[C@@H]12 | inactive: -2.88% |  |
| O=C(O)CCSc1nnc(-c2ccc(Cl)cc2Cl)o1 | inactive: 1.64% |  |
| Cc1cc(-c2ccc(C)c(S(=O)(=O)N(C(C)C)C3CCCCC3)c2)on1 |  | inactive |
| CCOC(=O)c1ccc(CN(Cc2ccc(Cl)cc2Cl)S(=O)(=O)c2cccc(Cl)c2)cc1 | inactive: 20.7% |  |
| COc1ccc(-c2nc3n(n2)C(c2cccc(C)c2)C(C(N)=O)=C(C)N3)cc1OC (stereo not given) | inactive: 17.7% |  |

| Compound | activity change, negative = inhibition | outcome |
| --- | --- | --- |
| CNC(=O)c1ccc(N2C(=S)N(c3ccc(C#N)c(C(F)(F)F)c3)C(=O)C2(C)C)cc1F | inactive: 11.1% |  |
| Cc1ccc2nc(N(Cc3cccnc3)C(=O)CCc3ccccc3)sc2c1 | inactive: -3.94% |  |
| Cc1cccc(-c2cc(C(=O)O)c3c(-c4ccc(F)cc4)[nH]nc3n2)c1 | inactive: 2.09% |  |
| CCOC(=O)C1=C(CN2CCCCC2)NC(=O)NC1c1ccc(OC)cc1 (stereo not given) | inactive: -5.82% |  |
| Cc1cccc(NC(=O)c2ccc(F)c(S(=O)(=O)N3CCN(c4ccc(F)cc4)CC3)c2)c1 |  | inactive |
| COc1ccc(CCNC(=O)CCn2c(=O)c3cccn3c3ccc(F)cc32)cc1OC | inactive: -27.2% |  |
| CCOc1ccccc1NC(=O)c1cn(C2CCCCC2)c(=O)c2c1c1ccccc1n2C | inactive: -2.88% |  |
| Cc1ccc(-c2cn3c(n2)sc2cc(C(=O)NC4CCCCC4)ccc23)cc1 |  | inactive |
| COc1cc(OC)c(NC(=O)Nc2cc(C)on2)cc1Cl | inactive: 13.7% |  |
| NS(=O)(=O)c1ccc(CCNC(=O)CCn2c(=O)c3cccn3c3cccnc32)cc1 | inactive: -3.61% |  |
| CC(CNC(=O)c1cc2ccccn2n1)c1ccccc1 (stereo not given) |  | inactive |
| COc1cc2nc(N3CCN(C(=O)C4COc5ccccc5O4)CC3)nc(N)c2cc1OC (stereo not given) | inactive: 9.47% |  |
| COc1ccc(Cl)cc1NC(=O)c1cc2nc(-c3ccc(C)cc3)cc(C(F)(F)F)n2n1 | inactive: 0.52% |  |
| Cc1cc(Br)ccc1NC(=O)C(NS(=O)(=O)c1cccs1)c1ccccc1 (stereo not given) |  | inactive |
| Cc1ccc(-n2ncc(C(=O)N(C)Cc3ccccc3)c2-n2cccc2)cc1 |  | inactive |
| CCOc1cc2ncc(C#N)c(Nc3ccc(OCc4ccccn4)c(Cl)c3)c2cc1NC(=O)C=CCN(C)C | inactive: -10.3% |  |
| Cc1sc2c(c1C)c(=O)n(-c1ccc(Cl)cc1)c(=O)n2CC(=O)c1ccccc1 | inactive: 2.86% |  |
| COc1cccc(C(=O)Nc2ccc3nc(SCC(=O)N4CCc5ccccc54)sc3c2)c1 | inactive: 2.87% |  |
| Cc1c(NC(=O)c2ccc(-c3ccc(F)cc3)o2)cccc1-c1nc2ncccc2o1 | inactive: -6.9% |  |
| Fc1ccc(Nc2nc(-c3ccc(F)cc3)c3c(n2)-c2ccccc2OC3)cc1 | inactive: -12% |  |
| O=C(c1cnc(N2CCCCC2)c2ccccc12)N1CCN(c2ccc(F)cc2)CC1 | inactive: 2.85% |  |
| O=c1c(O)c(-c2ccc(O)cc2)oc2cc(O)cc(O)c12 | inactive: 26.8% |  |
| COc1cc(NC(=O)CCCN2C(=O)CCn3nc(-c4cn(C)c5ccccc45)cc32)cc(OC)c1 | inactive: -7.98% |  |
| CCOC(=O)C(C)Nc1ncnc2onc(C)c12 (stereo not given) | inactive: -12.4% |  |

| Compound | activity change, negative = inhibition | outcome |
| --- | --- | --- |
| CSc1nc(C)cc(Nc2cccc(C(=O)O)c2)n1 | inactive: -18.3% |  |
| Cc1ccc(-c2nc3scc(CCNS(=O)(=O)c4c(C)noc4C)n3n2)cc1 |  | inactive |
| CCOc1ccccc1CNC(=O)c1cc2oc3ccccc3c2n1CC | inactive: 13.4% |  |
| O=c1[nH]c2ccc(S(=O)(=O)Nc3cc(Cl)ccc3O)cc2o1 | inactive: -1.84% |  |
| COc1cccc(CNC(=O)c2ccc3c(c2)sc2nc(-c4ccccc4)cn23)c1OC | inactive: -0.143% |  |
| O=C(OCC1CCCO1)c1ccc2c(c1)N(Cc1cccc(F)c1)C(=O)c1ccccc1S2(=O)=O (stereo not given) |  | inactive |
| CCC(=O)N1CCc2cc(Br)cc(S(=O)(=O)N3CCN(c4cccc(Cl)c4)CC3)c21 |  | inactive |
| Cc1nc2c(-c3ccc(F)cc3)c(C)nn2c(C)c1CCC(=O)NCc1cccc(Cl)c1 |  | inactive |
| Cc1cc(C)cc(NC(=O)c2cc3c(=O)n(Cc4ccco4)ccc3nc2C)c1 | inactive: -24.2% |  |
| Cc1cc2c(cc1S(=O)(=O)CCC(=O)N(C)Cc1ccccc1)OCC(=O)N2 |  | inactive |
| CCOc1cccc(C2c3[nH]c4ccccc4c3CCN2C(=O)Cc2cccc(OCC)c2OCC)c1 (stereo not given) | inactive: 6.46% |  |
| CC1CCc2nc(NC(=O)Cc3ccc(Cl)cc3)sc2C1 (stereo not given) | inactive: -8.94% |  |
| Cc1cc(C)cc(NC(=O)CN(c2cccc(C)c2C)S(=O)(=O)c2ccccc2)c1 | inactive: 2.83% |  |
| COc1ccc(C2=NS(=O)(=O)N(C)C(C(=O)NC(C)c3ccccc3)=C2)cc1OC (stereo not given) | inactive: 3.84% |  |
| O=C(CSc1nc(-c2ccccc2)no1)N1CCN(c2ccc(F)cc2)CC1 | inactive: 6.53% |  |
| CC1=C(C(=O)OC2CCCC2)C(c2ccc(Cl)cc2)CC(=O)N1 (stereo not given) | inactive: -18% |  |
| CSc1cccc(NC(=O)N2CCN(S(=O)(=O)c3ccc4c(ccn4C)c3)CC2)c1 | inactive: -5.39% |  |
| COc1ccc2c(CNCCc3ccccc3OC)c(C(=O)O)n(Cc3ccc(F)cc3Cl)c2c1 |  | inactive |
| COc1ccc(-c2nc(SCCOc3cc(C)ccc3C(C)C)n3[nH]c(=O)cc3n2)cc1 | inactive: 4.18% |  |
| Cc1cccc(NC(=O)C2CCN(S(=O)(=O)c3c(C)noc3/C=C/c3ccco3)CC2)c1C | inactive: -5.65% |  |
| COc1cccc(N2C(=O)CSC23C(=O)N(Cc2ccccc2F)c2ccccc23)c1 (stereo not given) | inactive: 48.6% |  |
| O=C(Nc1ccccc1)N(Cc1cccs1)c1ccc(Cl)cc1 |  | inactive |
| CC(=O)N(Cc1cccnc1)c1nc2cc(C)cc(C)c2s1 | inactive: 8.86% |  |
| O=S(=O)(c1ccc(Cl)cc1)c1nnn2c1nc(NCc1ccccc1)c1sccc12 | inactive: -3.17% |  |

| Compound | activity change, negative = inhibition | outcome |
| --- | --- | --- |
| Cc1ccc(-n2c(=O)[nH]c3sc4c(c3c2=O)CCCC4)cc1 | inactive: -8.75% |  |
| CC(=O)Nc1ccccc1-c1nc2ccccc2n(C(C)C(=O)Nc2cccc(C)c2C)c1=O (stereo not given) | inactive: -7.52% |  |
| CCc1ccc(CN(Cc2ccco2)C(=O)c2ccc(C)cc2)cc1 | inactive: -6.36% |  |
| Cc1ccc(S(=O)(=O)n2nc(C)c(S(=O)(=O)N3CCCCC3)c2C)cc1 |  | inactive |
| CCOc1ccc(NC(=O)CCc2c(C)nc3c(c(C)nn3-c3ccccc3)c2C)cc1 | inactive: -8.36% |  |
| CSc1ccc(/C=C/c2nc3ccccc3n2S(=O)(=O)c2ccc(F)c(C)c2)cc1 | inactive: -0.46% |  |
| CCOc1ccc(NC(=O)CC2C(=O)N(c3cccc(C)c3)C(=O)N2CCC2=CCCCC2)cc1 (stereo not given) |  | inactive |
| COc1ccccc1C(=O)N(Cc1ccco1)Cc1ccccc1F | inactive: -1.41% |  |
| COc1ccc(Cl)cc1NC(=O)CN1C(=O)CSc2ccc(S(=O)(=O)N3CCCC3)cc21 | inactive: -12.2% |  |
| CCCCN(CC)C(=O)C1CCC(CNS(=O)(=O)c2cccc3nsnc23)CC1 (stereo not given) |  | inactive |
| Cc1cc(NC(=O)c2ccco2)cc(-c2nc3cc(Cl)ccc3o2)c1O | inactive: 0.812% |  |
| CCc1ccc(C(=O)c2cn(CC(=O)Nc3cccc(C)c3C)c3nc(C)ccc3c2=O)cc1 | inactive: 1.91% |  |
| COc1cc(OC)c(NC(=O)CN(C)S(=O)(=O)c2ccc3c(c2)CCCC(=O)N3)cc1Cl | inactive: 35.7% |  |
| COc1ccc(CNC(=O)CCc2c(C)nn(-c3ccc(N4CCOCC4)nn3)c2C)cc1 |  | inactive |
| COc1ccc(CCNC(=O)C2=C(C)C(=O)OC23CCCCC3)c(OC)c1 |  | inactive |
| CCC(C(=O)N(C)Cc1ccccc1)n1nc(C)c2sc3ccccc3c2c1=O (stereo not given) | inactive: -5.3% |  |
| Cc1cccc(NC(=O)CSc2nc(C)c(Cc3ccccc3)c(=O)[nH]2)c1C | inactive: -6% |  |
| FC(F)(F)c1ccc(Nc2nc3ccc(Oc4ccnc(-c5ncc(C(F)(F)F)[nH]5)c4)cc3[nH]2)cc1 | inactive: 17.7% |  |
| Cc1ccc(CNC(=O)c2cc(Sc3ccc(F)cc3F)nc3ccccc23)cc1 | inactive: -3.82% |  |
| COc1ccc(NC(=O)C2CCCN(S(=O)(=O)c3ccc4[nH]c(=O)ccc4c3)C2)cc1OC (stereo not given) | inactive: -23.8% |  |
| CCOC(=O)c1ccc(CN(Cc2ccc(F)cc2)S(=O)(=O)c2cc(C(=O)Nc3ccccc3CC)ccc2F)cc1 |  | inactive |
| CCOC(=O)N1CCN(S(=O)(=O)N2CCCC(C(=O)NCc3ccccc3OC)C2)CC1 (stereo not given) | inactive: 5.88% |  |
| CC(=O)N1CCCC1c1nc2ccccc2n1Cc1cc(C)ccc1C (stereo not given) | inactive: 0.784% |  |
